Test results from PubChem BioAssay AID588855 (National Center for Advancing Translational Sciences (NCATS), 2011).
Where “and” joins values, the source holds several entries; their conditions need not be identical. Identical values can stand only once. Out of some 410,000 compounds screened, about 5,000 (1.2%) were called active. Inconclusive results, whose numbers are uncertain, are shown with a selection of clear calls. Calls come from the whole dose curve; as a rule, active = well fitted inhibition curve with a large enough effect; inconclusive = small, poorly fitted or top-dose-only effect; inactive = no such curve, though single readings can be large or run the other way. Potencies of inconclusive entries are doubtful fits and often do not repeat.

Assay: qHTS for Inhibitors of TGF-b; note: nearly all actives have a fitted effect of over 65% in size
Settings: HepG2 CAGA-GFP TGF-b/SMAD3 reporter, GFP fluorescence, 18 h, TGF-beta stimulated, 500 pg/mL final; series mostly up to 46.1 µM
Procedure, shortened: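 Using HEPG2 CAGA-GFP reporter cells at 1000 cells/well, we pinned test compounds, stimulated with recombinant TGF-beta (500 pg/mL final) and measured total well GFP after 18 h.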
Potency is the fitted concentration of half-maximal effect; tags give direction and shape of the fitted curve.

**Q.** Which Potency does the source give for Cc1cc(N2CCN(S(=O)(=O)c3ccc(Cl)c(Cl)c3)CC2)c2ccccc2n1 here?
**A.** inconclusive: 20 µM [inhibitor, single point]

**Q.** With CCc1cccc(NC(=O)c2ccc(CNS(=O)(=O)c3ccc4c(c3)C(C)(C)C(=O)N4C)cc2)c1 as the compound, how does the Potency read?
**A.** inconclusive: 14.1 µM [inhibitor, partial curve, poor fit]

**Q.** Which Potency does the source give for CCOC(=O)N1CCN(C(=O)CSCc2nc(-c3ccccc3C)oc2C)CC1 here?
**A.** inactive

**Q.** With O=[N+]([O-])c1cc(CN2CCN(c3ccccc3)CC2)c(O)c2ncccc12 as the compound, how does the Potency read?
**A.** inconclusive: 5.62 µM [inhibitor, full curve]

**Q.** With Cc1csc(SC(C)C(=O)NCC2CCCCC2)n1 (stereo not drawn) as the compound, how does the Potency read?
**A.** inconclusive: 5.62 µM [inhibitor, single point]

**Q.** For OC(COc1ccc2ccccc2c1)CN1CCN(c2ccc(F)cc2)CC1 (stereo not drawn), which Potency is on record?
**A.** inconclusive: 3.16 µM [inhibitor, single point]

**Q.** For COc1c(Br)cc(Br)cc1/C=N/NC(=O)c1cccnc1, which Potency is on record?
**A.** inconclusive: 35.5 µM [inhibitor, single point]

**Q.** With CNC(=O)c1c(NC(NC(=O)c2ccco2)C(=O)c2ccc(Cl)cc2)sc2c1CCCC2 (stereo not drawn) as the compound, how does the Potency read?
**A.** inconclusive: 17.8 µM [inhibitor, single point]

**Q.** For CCc1ccc(NC(=O)Cn2cnc3sc(C)c(S(=O)(=O)N4CCN(c5ccccc5OC)CC4)c3c2=O)cc1, which Potency is on record?
**A.** inconclusive: 3.55 µM [inhibitor, single point]

**Q.** With O=C(Cc1ccccc1Cl)Nc1cccnc1 as the compound, how does the Potency read?
**A.** inactive

**Q.** For CCC(C)NC(=O)CCc1c(C)nc2cc(-c3ccc(OC)cc3OC)nn2c1C (stereo not drawn), which Potency is on record?
**A.** inactive

**Q.** With CCOC(=O)Cn1c(CN2CCN(c3cccc(Cl)c3)CC2)nc2c1c(=O)[nH]c(=O)n2C as the compound, how does the Potency read?
**A.** inconclusive: 35.5 µM [inhibitor, single point]

**Q.** For O=C(CC(=O)N1CCN(c2ccccn2)CC1)Nc1ccc2nc3n(c(=O)c2c1)CCCCC3, which Potency is on record?
**A.** inconclusive: 11.2 µM [inhibitor, single point]

**Q.** For COCCNC(=S)N/N=C(\C)c1ccc(Cl)c(Cl)c1, which Potency is on record?
**A.** active: 8.91 µM

**Q.** Which Potency does the source give for CCCCn1c(NC(=O)C2CCCCC2)nc2ccccc21 here?
**A.** inconclusive: 0.112 µM [inhibitor, full curve, poor fit]

**Q.** For COc1ccccc1NC(=O)c1ccc(S(=O)(=O)N(C)c2ccccc2)cc1, which Potency is on record?
**A.** inactive

**Q.** With CC1(C(=O)NS(=O)(=O)c2ccc(C#N)cc2)CCN1C(=O)Cc1ccccc1Cl (stereo not drawn) as the compound, how does the Potency read?
**A.** inactive

**Q.** With C=CCNc1nc(N)c(C(=C(C#N)C#N)c2ccc(Br)cc2)s1 as the compound, how does the Potency read?
**A.** inconclusive: 35.5 µM [inhibitor, single point]

**Q.** Which Potency does the source give for O=C(NCc1cccc(Cl)c1)c1ccc(-c2cccnc2)c2ccoc12 here?
**A.** inactive

**Q.** For CC(C)(C)n1ncc2c(=O)n(Cc3ccc(F)c(C(F)(F)F)c3)cnc21, which Potency is on record?
**A.** inconclusive: 35.5 µM [inhibitor, single point]

**Q.** Which Potency does the source give for Cc1ccc(N=C2S/C(=C\c3cn(CC(=O)O)c4ccccc34)C(=O)N2C)cc1 here?
**A.** inactive

**Q.** With O=C(Nc1ccc(F)c(Cl)c1)N1CCC(CN2CCc3ccccc3C2)CC1 as the compound, how does the Potency read?
**A.** inconclusive: 35.5 µM [inhibitor, single point]

**Q.** Which Potency does the source give for C[C@@H]1CCCCO[C@H](CN(C)S(=O)(=O)c2cccs2)[C@@H](C)CN([C@H](C)CO)C(=O)c2cc(NC(=O)Nc3ccc4c(c3)OCO4)ccc2O1 here?
**A.** inactive

**Q.** With Cc1ccc(-c2nnc(N3CCN(C(=O)c4cccs4)CC3)c3ccccc23)cc1 as the compound, how does the Potency read?
**A.** inconclusive: 15.8 µM [inhibitor, partial curve, poor fit]

**Q.** With CCOc1ccccc1C(=O)N/N=C/c1cccc2cccnc12 as the compound, how does the Potency read?
**A.** inconclusive: 6.31 µM [inhibitor, single point]

**Q.** With O=C(Cc1cccc2ccccc12)Nc1ccc(OC(F)F)c(Cl)c1 as the compound, how does the Potency read?
**A.** inconclusive: 22.4 µM [inhibitor, partial curve, poor fit]

**Q.** With O=C1CCN(C(=O)/C=C/c2ccccc2)c2ccccc21 as the compound, how does the Potency read?
**A.** inactive

**Q.** For CC(C)(C)C1=C(C#N)C(c2cccnc2)C(C#N)=C(N)O1 (stereo not drawn), which Potency is on record?
**A.** inconclusive: 35.5 µM [inhibitor, single point]

**Q.** Which Potency does the source give for O=C(Nc1ccc(S(=O)(=O)N2CCCCC2c2cccnc2)cc1)c1c(F)cccc1F (stereo not drawn) here?
**A.** inactive

**Q.** Which Potency does the source give for COc1ccccc1N1CCN(C(=O)Cn2nnc(-c3ccncc3)n2)CC1 here?
**A.** inactive

**Q.** For C/C=C1\COC(C(=O)NCc2cccc(OC)c2OC)(C(F)(F)F)C=C1C=C1CCCCC1 (stereo not drawn), which Potency is on record?
**A.** inconclusive: 11.2 µM [inhibitor, single point] and inconclusive: 22.4 µM [inhibitor, single point]

**Q.** Which Potency does the source give for CCOC(=O)c1cnc2ccc(OC)cc2c1Nc1ccc(N2CCN(C)CC2)cc1 here?
**A.** inconclusive: 35.5 µM [inhibitor, partial curve, poor fit]

**Q.** Which Potency does the source give for CCOC(=O)C1CCCN(C(=O)c2[nH]c3ccccc3c2Sc2ccc(Cl)cc2)C1 (stereo not drawn) here?
**A.** inconclusive: 35.5 µM [inhibitor, single point]

**Q.** For CC(C)C1N=C(c2ccc3c(c2)OCO3)CC(c2ccccc2O)N1 (stereo not drawn), which Potency is on record?
**A.** inconclusive: 22.4 µM [inhibitor, single point]

**Q.** With CCN(CC)CCN=C1CCCc2ccccc2N1 as the compound, how does the Potency read?
**A.** inactive

**Q.** With CC1(c2ccccc2)NC(=S)N2C1NC(=S)N2c1ccccc1 (stereo not drawn) as the compound, how does the Potency read?
**A.** inactive

**Q.** For COc1cccc(CNC(=O)c2ccc3c(c2)nc2n3CCC(C)C2)c1OC (stereo not drawn), which Potency is on record?
**A.** inactive

**Q.** Which Potency does the source give for O=C(CSc1ccc(-c2ccco2)nn1)Nc1ccccc1F here?
**A.** inconclusive: 11.2 µM [inhibitor, single point]

**Q.** With CCOC(=O)C1=CN(Cc2cccc(F)c2)S(=O)(=O)N(C)C1c1ccc(F)c(Cl)c1 (stereo not drawn) as the compound, how does the Potency read?
**A.** inactive

**Q.** For O=C(NCCOc1ccc(F)cc1)C1CCC(=O)N(CCCN2CCOCC2)C1 (stereo not drawn), which Potency is on record?
**A.** inconclusive: 1.26 µM [inhibitor, partial curve, poor fit]

**Q.** Which Potency does the source give for CCN(CC)S(=O)(=O)c1cc(NC(=O)C(C)N2CCc3ccccc32)ccc1C (stereo not drawn) here?
**A.** inconclusive: 35.5 µM [inhibitor, single point]

**Q.** Which Potency does the source give for Cc1c(OCC(=O)C(C)(C)C)ccc2c(-c3ccccc3)cc(=O)oc12 here?
**A.** inconclusive: 17.8 µM [inhibitor, single point]

**Q.** With Cc1ccc(Nc2ncnc3c2cnn3C)c(C)c1 as the compound, how does the Potency read?
**A.** inconclusive: 22.4 µM [inhibitor, single point]
